Where “and” joins values, the source holds several entries; their conditions need not be identical. Equal entries are not always repeated. The campaign covered roughly 390,000 compounds. About 17,000 (4.4%) were called active. The shares of active, inactive and inconclusive entries below differ from those in the screen. Calls follow the shape of the dose curve; as a rule, active = well fitted inhibition curve with a large enough effect; inconclusive = small, poorly fitted or top-dose-only effect; inactive = no such curve, though single readings can be large or run the other way. Potencies beside an inconclusive call are fits to weak or partial responses and may not hold up.
What follows are compounds tested against Lysine-specific demethylase 4A (Homo sapiens) (UniProt O75164) (assay: qHTS Assay for Inhibitors of JMJD2A-Tudor Domain). Conditions: AlphaScreen JMJD2A-Tudor / H3K4me3 peptide binding; activity change, negative = inhibition: at 114 µM (top of the series).
Sequence of UniProt O75164 (O75164 whole entry, looked up, the tested form may be a part): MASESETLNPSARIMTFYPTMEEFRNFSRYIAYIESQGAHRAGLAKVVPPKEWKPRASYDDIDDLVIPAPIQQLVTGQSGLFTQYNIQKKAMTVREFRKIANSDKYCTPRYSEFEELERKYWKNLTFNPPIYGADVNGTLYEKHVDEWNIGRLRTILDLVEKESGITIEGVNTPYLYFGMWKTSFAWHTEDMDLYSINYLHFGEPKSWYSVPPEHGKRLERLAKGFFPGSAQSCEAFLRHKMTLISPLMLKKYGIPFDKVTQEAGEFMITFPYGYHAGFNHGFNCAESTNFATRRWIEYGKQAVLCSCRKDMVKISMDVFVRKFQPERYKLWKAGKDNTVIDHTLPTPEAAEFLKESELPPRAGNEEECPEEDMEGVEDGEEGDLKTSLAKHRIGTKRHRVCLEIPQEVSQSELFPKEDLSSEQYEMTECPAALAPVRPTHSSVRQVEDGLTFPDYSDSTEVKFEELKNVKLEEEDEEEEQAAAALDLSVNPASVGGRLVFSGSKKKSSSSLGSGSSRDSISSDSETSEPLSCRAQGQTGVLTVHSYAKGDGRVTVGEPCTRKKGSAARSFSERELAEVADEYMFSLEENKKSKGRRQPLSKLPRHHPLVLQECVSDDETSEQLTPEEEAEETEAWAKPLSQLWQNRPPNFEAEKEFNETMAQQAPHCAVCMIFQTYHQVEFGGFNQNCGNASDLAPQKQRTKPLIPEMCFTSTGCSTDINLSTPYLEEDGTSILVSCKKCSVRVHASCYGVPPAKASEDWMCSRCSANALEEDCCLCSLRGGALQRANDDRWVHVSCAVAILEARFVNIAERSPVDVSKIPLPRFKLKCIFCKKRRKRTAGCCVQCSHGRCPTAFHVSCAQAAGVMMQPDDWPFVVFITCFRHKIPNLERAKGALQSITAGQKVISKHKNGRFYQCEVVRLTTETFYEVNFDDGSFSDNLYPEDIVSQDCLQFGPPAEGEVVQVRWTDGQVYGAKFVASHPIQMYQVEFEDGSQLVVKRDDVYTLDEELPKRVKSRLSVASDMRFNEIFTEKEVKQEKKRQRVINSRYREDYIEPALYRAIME
% is scaled to controls: 0 for no effect and ±100 for the full control effect; potency is read from the fitted curve at half-maximal effect; tags tell the direction and shape of the fitted curve.
Also: nearly all actives have a fitted effect of over 50% in size.

| SMILES | Potency | activity change, negative = inhibition |
| --- | --- | --- |
| O=C(Cc1ccc(-n2cccc2)cc1)NC1CCCCCC1 | inconclusive: 28.2 µM [inhibitor, full curve] |  |
| CCC1Nc2ncnc(N3CCN(c4ccccc4)CC3)c2N(Cc2ccc(Br)cc2)C1=O (configuration not stated) | inconclusive: 44.7 µM [inhibitor, partial curve] |  |
| CC(C)Cn1c(SCC(=O)c2ccc(Cl)s2)nnc1-c1ccco1 | inconclusive: 79.4 µM [inhibitor, partial curve] |  |
| O=C(c1ccco1)[C@@H]1[C@@H]2C(=O)N(c3ccc(Br)cc3)C(=O)[C@@H]2C2c3ccccc3C=CN21 (some centres not stated) | inconclusive: 56.2 µM [inhibitor, partial curve] |  |
| CCOC(=O)C1=C(CS(=O)(=O)c2c(C)cc(C)cc2C)NC(=O)NC1c1cccc(OC)c1 (configuration not stated) | inactive |  |
| C=CCOc1ccc(C2/C(=C(\O)c3ccc4c(c3)CC(C)O4)C(=O)C(=O)N2CCN2CCOCC2)cc1OCC (configuration not stated) | active: 35.5 µM |  |
| COc1nc(N(C)S(=O)(=O)c2ccc(C)cc2)nc(C)c1Br | inactive |  |
| Cc1cc[n+](-c2[nH]c(=O)sc2/C=N/NC([S-])=Nc2ccccc2)cc1C | inconclusive: 56.2 µM [inhibitor, partial curve] |  |
| CCCCCCSc1cc(-c2nc3cc(C)ccn3c2NC2CCCCC2)ccc1OC | inconclusive: 63.1 µM [inhibitor, partial curve, poor fit] |  |
| Cc1ccccc1-n1ncc2c1CC(C)(C)CC2NC(=O)c1cn[nH]c1C (configuration not stated) | inconclusive: 20 µM [inhibitor, full curve] |  |
| Cc1[nH][nH]c(=O)c1C(c1ccc(N(C)C)c(Br)c1)c1c(C)[nH][nH]c1=O | inconclusive: 22.4 µM [inhibitor, partial curve] |  |
| COc1cc(-c2nnc(SCC(=O)Nc3ccc(F)c(Cl)c3)o2)cc(OC)c1OC | inactive |  |
| Cc1cc(C(=O)CSc2nnc(-c3ccc(Cl)cc3)n2CC2CCCO2)c(C)n1C (configuration not stated) | inconclusive: 63.1 µM [inhibitor, partial curve, poor fit] |  |
| CCN(CC)c1ccc(NC(=O)COC(=O)c2cccs2)cc1 | inconclusive: 39.8 µM [inhibitor, partial curve] |  |
| COc1cccc(C(=O)Nc2ccccc2OCc2cc(=O)n3cc(C)ccc3n2)c1 | inactive |  |
| COC(CNC(=O)c1ccc(N2CCc3ccccc32)c([N+](=O)[O-])c1)OC | inconclusive: 56.2 µM [inhibitor, partial curve] |  |
| CCCNC(=O)C1CCN(S(=O)(=O)c2ccc3c(c2)CCCN3C(C)=O)CC1 | inactive |  |
| Cc1ccc(C(=O)NCC(C)NC(=O)c2ccc(C)c([N+](=O)[O-])c2)cc1[N+](=O)[O-] (configuration not stated) | inactive |  |
| CCOC(=O)C1=CN(CC)S(=O)(=O)NC1CC (configuration not stated) | inactive |  |
| COc1ccc2sc(N(CCCN(C)C)C(=O)c3ccc(S(=O)(=O)N(C)C4CCCCC4)cc3)nc2c1 | active: 56.2 µM |  |
| O=C(Nc1ccccc1N1CCCC1)C1CCN(S(=O)(=O)c2ccccc2C(F)(F)F)CC1 | inconclusive: 79.4 µM [inhibitor, partial curve] |  |
| O=C(Nc1nc2ccc(F)cc2s1)c1nc(S(=O)(=O)Cc2ccccc2)ncc1Cl | inconclusive: 89.1 µM [inhibitor, partial curve] |  |
| Cc1cc(C)nc(NS(=O)(=O)c2ccc(-n3cccc3)cc2)n1 | inconclusive: 89.1 µM [inhibitor, single point] |  |

| SMILES | Potency | activity change, negative = inhibition |
| --- | --- | --- |
| Cc1nc(SCc2nc3ccccc3[nH]2)c2oc3cc([N+](=O)[O-])ccc3c2n1 | inconclusive: 20 µM [inhibitor, full curve, poor fit] |  |
| O=C(c1ccc(S(=O)(=O)c2ccccc2Cl)c([N+](=O)[O-])c1)N1CCN(Cc2ccccc2)CC1 | inconclusive: 14.1 µM [inhibitor, full curve] |  |
| COC(=O)C1=C(C)N(Cc2ccccc2)C(=NCCCOC(C)C)N[C@H]1c1ccccc1 | inconclusive: 35.5 µM [inhibitor, single point] |  |
| O=C(c1ccc(-n2c(SCc3cccc(F)c3)nc3ccccc3c2=O)cc1)N1CCOCC1 | active: 39.8 µM |  |
| COc1cc(C=NNC(=O)c2ccccc2NS(=O)(=O)c2cccs2)cc(OC)c1O | inconclusive: 11.2 µM [inhibitor, partial curve] |  |
| Cc1cccc(N=Cc2[nH]c3ccc(Br)c(Cl)c3c2O)c1 | inconclusive: 25.1 µM [inhibitor, single point] |  |
| CCCn1c(=O)c2sccc2n2c(CCCC(=O)NCc3ccco3)nnc12 | inconclusive: 79.4 µM [inhibitor, partial curve] |  |
| Cc1ccc(C(=O)NNc2cc(N3CCCC3)nc(N3CCCC3)n2)cc1 | inconclusive: 50.1 µM [inhibitor, partial curve] |  |
| Cc1ccc(S(=O)(=O)Nc2ccc(N=Nc3ccc(O)cc3)cc2)cc1 |  | inconclusive: -62% [inhibitor] |
| COCCN(CCOC)S(=O)(=O)c1ccc(C(=O)Nc2nnc(C3CC3)o2)cc1 | active: 10 µM |  |
| COc1ccc(/C=N\NC(=O)c2cc(O)c(O)c(O)c2)cc1CN1CCN(c2ccc(F)cc2)CC1 | active: 56.2 µM |  |
| Cc1noc(/C=C/N(C)C)c1S(=O)(=O)N1CCCC(C(=O)Nc2ccc3c(c2)OCO3)C1 (configuration not stated) | inconclusive: 56.2 µM [inhibitor, partial curve] |  |
| Brc1cccc(-c2nc3cccnc3nc2-c2cccc(Br)c2)c1 | inconclusive: 56.2 µM [inhibitor, partial curve] |  |
| CC(C)N1CCc2c(sc(NC(=O)c3cc(-c4cccs4)nc4ccccc34)c2C(N)=O)C1 | inconclusive: 31.6 µM [inhibitor, partial curve] |  |
| COC(=O)C1=C(C)N(c2ccccc2)C(=S)NC1c1ccccc1C(F)(F)F (configuration not stated) | inconclusive: 50.1 µM [inhibitor, partial curve] |  |
| COc1ccc(S(=O)(=O)Nc2ccccc2)cc1OC | inactive |  |
| O=C(Oc1c(CN2CCOCC2)cc(Cl)c2cccnc12)c1ccccc1F | active: 25.1 µM |  |
| CCSc1nnc(NC(=O)CSc2nc3c(c(=O)n2-c2ccccc2OC)SCC3)s1 | inconclusive: 63.1 µM [inhibitor, partial curve, poor fit] |  |
| Cc1cc(C)c2sc(NNC(=O)c3ccc(S(=O)(=O)N4CCc5ccccc5C4)cc3)nc2c1 | active: 3.55 µM |  |
| Cc1c(C)n(C)c2ccc(C(=O)N3CCN(c4ccccc4)CC3)cc12 | active: 39.8 µM and active: 35.5 µM |  |
| Cc1nc2ccc(NC(=S)NCCCO)cc2nc1C | inactive |  |
| O=C(NCCCN1CCN(c2ccc(F)cc2)CC1)Nc1ccc([N+](=O)[O-])cc1 | inconclusive: 44.7 µM [inhibitor, partial curve] |  |
| CCCCC1=CC2=CC(=O)C(C)(OC(=O)CC)C(=O)C2=CO1 (configuration not stated) | inconclusive: 89.1 µM [inhibitor, partial curve] |  |

| SMILES | Potency | activity change, negative = inhibition |
| --- | --- | --- |
| Cc1ccc(N(CC(=O)Nc2cc(C)cc(C)c2)S(=O)(=O)c2cccc3nonc23)cc1 | inconclusive: 12.6 µM [inhibitor, full curve] and inconclusive: 10 µM [inhibitor, full curve, poor fit] |  |
| O=C1Nc2ccc3sc4ccccc4c3c2C1=O | inconclusive: 35.5 µM [inhibitor, partial curve] |  |
| O=C(c1ccc2c(Cl)c3c(nc2c1)CCCC3)N1CCN(c2ccc(F)cc2)CC1 | inconclusive: 39.8 µM [inhibitor, partial curve] |  |
| O=[N+]([O-])c1cc2cccnc2c2ncccc12 | active: 79.4 µM |  |
| CC(C)c1cccc(-c2ccc3c(c2)S(=O)(=O)c2cccc(C(=O)NCc4ccco4)c2C3=O)c1 | inconclusive: 79.4 µM [inhibitor, single point] |  |
| CCn1c(-c2nn(C)cc2Cl)n[nH]c1=S | active: 6.31 µM |  |
| O=c1cnc(-c2ccc(Cl)cc2)cn1O | active: 89.1 µM |  |
| CCOc1ccccc1OCCOc1ccccc1CC | inactive |  |
| c1ccc(Cn2c(NCc3ccco3)nc3ccccc32)cc1 | inconclusive: 31.6 µM [inhibitor, partial curve] |  |
| COc1cccc(C(=O)Nc2ccc(-c3cn4cccnc4n3)cc2)c1OC | inactive |  |
| Nc1[nH]ncc1S(=O)(=O)c1ccccc1 | inconclusive: 89.1 µM [inhibitor, single point] |  |
| COc1ccc(OC)c(NC(=O)c2ccc(OC3CSC3)cc2)c1 | inconclusive: 20 µM [inhibitor, full curve, poor fit] |  |
| COc1cc2ccccc2cc1C(=O)Nc1ccc(Cl)c(-c2nc3ccccc3o2)c1 | inactive |  |
| CCOC(=O)Nc1ccc2c(COC(=O)CNS(=O)(=O)c3cccc(Br)c3)cc(=O)oc2c1 | inactive |  |
| Brc1ccccc1/C=N/N1CCCCC1 | inconclusive: 39.8 µM [inhibitor, partial curve] |  |
| Cc1sc2ncnc(Nc3ccc(O)cc3)c2c1C | inconclusive: 14.1 µM [inhibitor, full curve, poor fit] |  |
| Cc1c(Cl)cccc1NC(=O)CSc1ncccc1C(=O)Oc1ccccc1Cl | inactive |  |
| COC(=O)CCc1c(C)[nH]c(C(=O)OCc2ccccc2)c1C | inconclusive: 56.2 µM [inhibitor, partial curve] |  |
| CCN(CC)S(=O)(=O)c1cccc(C(=O)N/N=C/c2ccc(O)c(O)c2O)c1 | inconclusive: 39.8 µM [inhibitor, single point] |  |
| CC(=O)Nc1sc2c(c1C(c1ccc(Cl)cc1)N1CCOCC1)CCCC2 (configuration not stated) | inconclusive: 28.2 µM [inhibitor, full curve] |  |
| CN1CCN(c2nc3c(S(=O)(=O)c4ccc(Br)cc4)nnn3c3ccsc23)CC1 | inconclusive: 50.1 µM [inhibitor, partial curve] |  |

Source: PubChem BioAssay AID504339 (National Center for Advancing Translational Sciences (NCATS), 2011)
